Test results as given in PubChem BioAssay (NCI).
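Cells were grown in 96-well plates and exposed to each compound for 48 hours at five concentrations; endpoints were interpolated linearly between bracketing concentrations, or set to the highest concentration if not reached. Here, GI50 denotes the concentration required for 50% inhibition of growth. At the TGI there is no net growth.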

What follows are molecules tested on NCI-H322M lung (assay: inhibition of tumour cell growth, NCI panel, 48 h).
Molecule O=C(Nc1ccc(-c2nc(-c3cccc(O)c3)c(-c3ccnc(Br)c3)[nH]2)cc1)c1ccccc1 has a GI50 of 2.05 µM and a TGI of 6.2 µM. For N#Cc1c(-c2ccc(Cl)cc2)nc(SCc2ccccc2)nc1N1CCNCC1, the GI50 was 1.56 µM and the TGI was 2.91 µM. Work on CCCC(=O)NC(c1ccc(N(CC)CC)cc1)c1cc(C)c2cccnc2c1O (stereo unspecified) yielded a GI50 of 0.501 µM and a TGI greater than 100 µM.
